Molecular target: human CD137 expressed on cells (Jurkat human CD137 NF-kB luciferase reporter cells; human CD8+ T cells) (human, UniProt Q07011 24-255)
Assay: cell-based or functional assay

Row | Jurkat-CD137/CHO-PSMA Reporter Assay EC50 | Binder
1 | 8.5 nM | TPP-800 PSMA-6GS-CD137-6GS-HSA (bispecific antibody) EVQLLESGGGLVQPGGSLRLSCAASGFSFSSYALSWVRQAPGKGLEWVSSIGENDGTTDYAD[about 20 residues not written out]MNSLRVEDTAVYYCVKDGVHWGQGTLVTVSSGGGGSGGGGSGGGGSGGGGSGGGGSGGGGSEVQLVESGGGVVQPGGSLRLSCAASGFTFSNYGMHWVRQAPGKGLEWVAVISNDGNTKTYADSVKGRFTISRDNSKNTLYLQMNSLRAEDTAVYYCAQDETTTVTASYYFDYWGQGTLVTVSSGGGGSGGGGSGGGGSGGGGSGGGGSGGGGSEVQLVESGGGLVQPGRSLRLSCAASGFTFHHYAMHWVRQAPGKGLEWVSGISWNGNKITYADSVKGRFTISRDNAKNSLYLQMNSLRAEDTALYYCVRDSSLFIVGAPTFEHWGRGTLVTVSS
2 | 2 nM | TPP-802 PSMA-6GS-CD137-6GS-HSA (bispecific antibody) EVQLLESGGGLVQPGGSLRLSCAASGFSFSSYALSWVRQAPGKGLEWVSSIGENDGTTDYAD[about 20 residues not written out]MNSLRVEDTAVYYCVKDGVHWGQGTLVTVSSGGGGSGGGGSGGGGSGGGGSGGGGSGGGGSEVQLVESGGGVVQPGGSLRLSCAASGFTFSNYGMHWVRQAPGKGLEWVAVISNDGNTKTYADSVKGRFTISRDNSKNTLYLQMNSLRAEDTAVYYCAQDETTTVTASYYFDYWGQGTLVTVSSGGGGSGGGGSGGGGSGGGGSGGGGSGGGGSEVQLVESGGGLVKPGGSLRLSCAASGFTFSNYNMNWVRQAPGKGLEWVSSISSAGTHIYYADSVKGRFTISRDNAKNSLYLQMNSLRAEDTAVYYCARDPHSTGWYKDFDYWGQGTLVTVSS
